PMC4336329 (PLoS ONE, 2015)
Out of some 310,000 compounds screened, about 2,200 (0.71%) showed an effect of 50% or more. The effect is printed as a negative number. The list shows a part of the results.

molecular target: human ether-à-go-go-related gene (hERG) potassium channel (human, UniProt Q12809); test: primary screen, population patch clamp on CHO cells stably expressing hERG
Sequence (Q12809 whole entry, looked up): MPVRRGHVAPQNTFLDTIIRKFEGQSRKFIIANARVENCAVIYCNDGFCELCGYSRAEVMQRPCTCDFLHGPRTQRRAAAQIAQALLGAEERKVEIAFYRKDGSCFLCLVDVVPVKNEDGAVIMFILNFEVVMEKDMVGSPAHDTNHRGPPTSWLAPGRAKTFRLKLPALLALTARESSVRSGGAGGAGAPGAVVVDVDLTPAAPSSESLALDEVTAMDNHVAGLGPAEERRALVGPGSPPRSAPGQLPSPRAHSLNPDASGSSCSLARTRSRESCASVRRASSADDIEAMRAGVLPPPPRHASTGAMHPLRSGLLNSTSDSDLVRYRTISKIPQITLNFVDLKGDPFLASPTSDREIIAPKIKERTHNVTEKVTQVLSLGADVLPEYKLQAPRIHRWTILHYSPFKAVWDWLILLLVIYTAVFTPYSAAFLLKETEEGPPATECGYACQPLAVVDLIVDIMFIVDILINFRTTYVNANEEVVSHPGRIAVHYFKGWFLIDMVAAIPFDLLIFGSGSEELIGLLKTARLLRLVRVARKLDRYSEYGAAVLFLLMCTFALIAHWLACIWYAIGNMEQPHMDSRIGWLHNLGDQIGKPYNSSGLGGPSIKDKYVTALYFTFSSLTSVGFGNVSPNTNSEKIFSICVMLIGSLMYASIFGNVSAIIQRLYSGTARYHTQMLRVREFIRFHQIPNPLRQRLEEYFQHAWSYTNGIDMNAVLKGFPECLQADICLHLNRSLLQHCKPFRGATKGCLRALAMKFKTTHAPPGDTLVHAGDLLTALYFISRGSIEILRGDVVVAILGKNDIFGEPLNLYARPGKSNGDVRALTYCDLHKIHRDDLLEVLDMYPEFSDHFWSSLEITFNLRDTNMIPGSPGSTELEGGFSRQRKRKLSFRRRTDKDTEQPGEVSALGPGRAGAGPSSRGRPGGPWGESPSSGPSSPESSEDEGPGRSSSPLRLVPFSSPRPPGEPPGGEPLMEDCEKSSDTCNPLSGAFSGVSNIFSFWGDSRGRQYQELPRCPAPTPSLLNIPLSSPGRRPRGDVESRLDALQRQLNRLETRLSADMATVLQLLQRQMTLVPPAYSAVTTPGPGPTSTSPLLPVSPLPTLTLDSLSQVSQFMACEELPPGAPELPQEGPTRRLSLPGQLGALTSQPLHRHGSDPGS

SMILES	hERG current change (%, negative = inhibition) at 1uM [%]
CC(=O)N1N=C(c2cccc([N+](=O)[O-])c2)OC1c1cccc(Br)c1 (stereo not drawn)	8.07
COC(=O)C1=C(c2cccc(C#N)c2)C[C@@H]2CC[C@H]1N2C(=O)NCc1ccco1	-3.94
CNC(=O)NC(=O)COC(=O)CCc1nc(=O)c2ccccc2n1C	7.53
CN(C(=O)COC(=O)/C=C/c1ccc2ccccc2n1)c1c(N)n(Cc2ccccc2)c(=O)[nH]c1=O	10.7
CN(C)c1ccc(C#Cc2ccc3cc(CCO)oc(=O)c3c2)cc1	14.2
CS(=O)(=O)N(CC(=O)N1CCN(c2ccccc2F)CC1)c1ccc2c(c1)OCCO2	-5.62
Cc1cnccc1CN(C)Cc1nc(Cc2ccccc2Cl)no1	17.4
C=CCN1C(=O)c2ccc(C(=O)NCC(=O)Nc3c(C)cc(C)cc3C)cc2C1=O	15.7
Cc1ccc(-c2nc(-c3ccncc3)no2)cc1	13.9
O=[N+]([O-])c1cc(Br)c2nsnc2c1N1CCOCC1	12.7
CN(C)CCCN1C(=O)C(=O)/C(=C(/O)c2ccncc2)C1c1ccccc1 (stereo not drawn)	10.8
Cc1ccc(CNC(=O)[C@H](C)[C@H]2C[C@]2(C)[C@H](NC(=O)OCc2ccccc2)c2ccccc2)o1	15.6
Cc1cc2c(cc1S(=O)(=O)N1CCN(c3cccc(C)c3C)CC1)OCC(=O)N2	7.13
Cc1nc2cc(CC(=O)O)ccc2o1	4.81
N/C(=N\N=C\c1cccc([N+](=O)[O-])c1)c1nonc1N	6.89
COC(=O)C(C)Sc1nc2c(c(=O)[nH]c(=O)n2C)n1CCC(C)C (stereo not drawn)	4.51
Cc1ccc(CCCOC(=O)C[N+]2(C)CCCC2)cc1.[I-]	12.2
CCS(=O)(=O)CCSC(=N)N.Cl	-35.5
COc1cccc(NC(=O)C(NCCC(C)C)c2ccccc2)c1 (stereo not drawn)	16.6
CC(C)c1nc(N2CCOCC2)c(C#N)c2c1COC(C)(C)C2	10.7
COc1ccccc1CNC(=O)COC(=O)c1cccc(S(=O)(=O)N2CCCCC2)c1	9.24
Cc1ccccc1NS(=O)(=O)c1ccc2c3c(cccc13)C(=O)N2C	-0.791
COC(=O)c1[nH]c2ccc(F)cc2c1NS(=O)(=O)c1ccc(OC)cc1	6.54

SMILES	hERG current change (%, negative = inhibition) at 1uM [%]
Cl.c1cncc(CNc2ncnc3sc4c(c23)CCC4)c1	-2.84
CC(C)CNC(=O)c1cc(-c2ccc3c(c2)OCO3)on1	13.6
COc1ccc(C(=O)N2CCC3(CC2)OCCO3)cc1	18.4
CCOC(=O)Nc1ccc2c(c1)N(C(=O)CN1CCN(C)CC1)c1ccccc1S2.Cl	-37.7
CC1CN(c2ccc([N+](=O)[O-])c(NCCOc3ccccc3)c2)CC(C)N1 (stereo not drawn)	6.97
CCC(C)(C(=O)NC1CCCC1)N(CC1CCCO1)C(=O)c1ccc2c(c1)OCO2 (stereo not drawn)	1.3
CCCOC(=O)c1ccc(NC(=O)C2CCCO2)cc1 (stereo not drawn)	11.2
COC(=O)[C@@]1(Cc2ccc(OC)cc2)[C@H]2c3cc(C(=O)N(C)C)n(Cc4ccc(OC(F)(F)F)cc4)c3C[C@H]2CN1C(=O)c1ccccc1	8.08
COCc1cc(OC)nc(-c2csc(C)n2)n1	15.9
CSc1ccccc1NC(=O)CN(C)CC(=O)Nc1ccccc1C(F)(F)F	5.44
FC(F)(F)c1ccccc1NC(=S)Nn1cnnc1	9.83
CCC(C)(C)n1nnnc1C(c1ccc(C)cc1)N1CCN(Cc2ccc3c(c2)OCO3)CC1 (stereo not drawn)	3.3
Cc1ccc(-c2ocnc2C(=O)Nc2ccccc2C(=O)N2CCCC2)cc1	-0.065
O=c1c(Br)c(N2CCCCC2)cnn1-c1ccccc1	7.77
CCC(=O)Nc1ccc(C(=O)COC(=O)CCN2C(=O)C3CC=CCC3C2=O)cc1 (stereo not drawn)	15.3
O=C(NCC1CCCN1S(=O)(=O)c1cccs1)c1ccc(F)c(F)c1 (stereo not drawn)	8.45
CCNC(=O)C(=O)Nc1ccc(OC)c(Cl)c1	7.31
CCOc1ccc(-n2ccnc2SCC(=O)Nc2cc(C)on2)cc1	1.88
Cc1ccc(-n2ncc3c2CC(C)(C)CC3NC(=O)CCc2c(C)noc2C)cc1 (stereo not drawn)	-11
Cc1cc(C(=O)N/N=C/c2ccc(-c3cccc(Cl)c3)o2)n[nH]1	17.6
COc1ccc2sc(-c3ccc(N(C)C)cc3)c(C#CC(C)(C)O)c2c1	10.4
COc1ccc(S(=O)(=O)NCC2CCCN(C(=O)c3ccco3)C2)cc1 (stereo not drawn)	14.1
Cc1ccc(C2OCC3(CO2)COC(c2ccc(C)cc2)OC3)cc1 (stereo not drawn)	6.71

SMILES	hERG current change (%, negative = inhibition) at 1uM [%]
CCC(C)NCCOCCOc1cc(C)c(Cl)c(C)c1.O=C(O)C(=O)O (stereo not drawn)	-1.43
Cn1c(=O)oc2cc(S(=O)(=O)N3CCN(c4ccccc4)CC3)ccc21	6.21
CN(C)CCCNc1nc(N)c([N+](=O)[O-])c(NCc2ccccc2)n1	5.97
O=c1[nH]c2c(c(=O)[nH]1)CCC2	3.5
O=C1CSC(c2cccc(O)c2)N1Cc1ccccc1 (stereo not drawn)	14.3
CN(C)c1cccc(C(=O)NNC(=O)/C=C/c2cccs2)c1	15.1
Cc1cccc(N2CCN(S(=O)(=O)c3c(C)[nH]c(=O)[nH]c3=O)CC2)c1C	34
O=C(CN(Cc1ccccc1Cl)C(=O)CCC(=O)Nc1nccs1)NCC1CCCO1 (stereo not drawn)	17.1
CCCOc1ccc(C2CC(=O)NC2=O)cc1 (stereo not drawn)	10.2
O=C(Cc1ccc(Cl)cc1)N/N=C/c1c(Cl)cccc1Cl	6.71
Cc1ccc(C)c(OCCC(=O)OCC(=O)Nc2cccc(S(=O)(=O)N3CCCC3)c2)c1	12
COc1ccc(-n2ncc(C(C)NS(=O)(=O)c3cccs3)c2C)cc1 (stereo not drawn)	15.1
CC(C)CNC(=O)CC(c1ccccc1)c1c(O)ccc2ccccc12 (stereo not drawn)	10.6
CC(=O)c1sc(NS(=O)(=O)c2ccc(C)cc2)nc1C	15.5
CN1CCN(/N=C/c2ccc(-c3ccccc3)cc2)CC1	3.85
CC(C)OC(=O)c1ccc(N2CCN(c3ccccc3F)CC2)nc1	13.6
CC(=O)N(c1nc(CCl)cs1)c1ccc(C)cc1C	11
CC(C)(C)c1cc(C(=O)NCc2ccco2)ccn1	21.2
CC(C)(C)OC(=O)NC(=NCCCc1cn(CC(=O)N2CCN(C(=O)OC(C)(C)C)CC2)nn1)NC(=O)OC(C)(C)C	13.1
O=C(O)C(=O)O.OCCNCCSc1ccc(Cl)cc1	-6.24
CCOC(=O)Cn1nnnc1C(C(C)C)N(Cc1cc2c(C)cc(C)cc2[nH]c1=O)C1CCCC1 (stereo not drawn)	20.9
CCOc1ccccc1NC(=O)CSc1nnc(CNC(=O)c2cc(OC)c(OC)c(OC)c2)o1	6.13
CC1(C(=O)NCCN2CCOCC2)C=CCN1C(=O)c1ccccc1 (stereo not drawn)	8.32

SMILES	hERG current change (%, negative = inhibition) at 1uM [%]
O=C(N/N=C/c1ccco1)c1cccc(NC(=O)c2cccc(Cl)c2)c1	-5.21
O=C(NCc1ccccc1)C1CCCN1C(=O)Nc1ccccc1[N+](=O)[O-] (stereo not drawn)	12.5
Cc1c(C(=O)NCCSCc2ccccc2Cl)cccc1[N+](=O)[O-]	-10.7
COc1ccc(S(=O)NC2CCCCC2)c(OC)c1C (stereo not drawn)	3.85
CNCCOc1ccccc1C(C)(C)C.O=C(O)C(=O)O	10.3
CCN1CCN(Cc2cc(Br)ccc2O)CC1	6.15
COc1cc(C)nn1-c1ccc(Cl)cc1	4.07
COc1ccc(S(=O)(=O)NCc2cccnc2)cc1C(=O)NC1CCCCC1	12.7
Cc1ccc(S(=O)(=O)NC(=O)c2cc(C)n(-c3ccccc3)c2C)cc1	8.61
CCc1cccc(NC(=O)c2cccc3c2C(=O)N(CC2CCCO2)C3)c1 (stereo not drawn)	-18.3
C/C(=N\NC(=S)NC(C)C)c1ccc(C(C)(C)C)cc1	6.21
COc1cccc(Cn2c(-c3cccs3)noc2=O)c1	-8.06
COc1ccccc1NC(=O)c1cc(=O)[nH]c2ccccc12	17.9
CCn1c(SCC(N)=O)nc2sc3c(c2c1=O)CCCC3	8.5
O=C(O)c1ccnc(Cl)c1	4.18
Cl.O=C(O)CSc1nc(-c2ccccc2)c(-c2ccccc2)[nH]1	9.63
Cc1cc(Sc2nc(NC(C)(C)C)nc(N3CCOCC3)n2)nc(Cl)n1	13.9
COc1ccc(OC)c(NC(=O)c2ccccc2SC)c1	-10.2
COC(=O)c1ccccc1SC1CC(=O)N(c2ccccc2)C1=O (stereo not drawn)	6.24
CC(=O)c1c(C)[nH]c(C(=O)N2c3ccccc3CC2C)c1C (stereo not drawn)	13.1
O=C1C=C(c2ccc3[nH]ccc3c2)CCC1	17.4
